Results are given in words; binding and its absence hold for the method and conditions named. Binding seen in cells or lysates may run through a third protein. Some results given as binding are weak or reduced against the parent protein; the word gives no strength.
Columns and labels:
[1] = molecular target: T1, IRF1 (interferon regulatory factor 1), endogenous (human (endogenous in HEK293T, MCF-7, MDA-MB-231, MCF-12F)) (UniProt P10914); assay: co-IP; HEK293T cells transfected with HA-tagged constructs; endogenous IRF1 immunoprecipitated with anti-IRF1 on protein G magnetic beads from pre-cleared lysate, overnight at 4°C; HA-tagged constructs looked for in the pulldown fraction by western blot
T1 sequence: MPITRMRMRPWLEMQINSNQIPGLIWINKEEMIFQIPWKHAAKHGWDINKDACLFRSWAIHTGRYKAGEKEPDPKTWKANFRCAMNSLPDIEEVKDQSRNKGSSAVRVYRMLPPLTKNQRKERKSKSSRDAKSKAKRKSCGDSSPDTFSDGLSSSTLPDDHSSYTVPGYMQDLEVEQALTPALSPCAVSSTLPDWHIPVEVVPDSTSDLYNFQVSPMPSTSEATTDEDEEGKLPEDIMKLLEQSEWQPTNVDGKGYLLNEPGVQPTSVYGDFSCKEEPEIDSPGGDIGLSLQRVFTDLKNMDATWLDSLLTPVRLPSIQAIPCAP

The chains behind the UniProt entries cited, without tags or fusion partners. Where a name states a change or a piece, a line headed by the entry shows the natural chain unless it says otherwise.
UniProt Q9Y4L5: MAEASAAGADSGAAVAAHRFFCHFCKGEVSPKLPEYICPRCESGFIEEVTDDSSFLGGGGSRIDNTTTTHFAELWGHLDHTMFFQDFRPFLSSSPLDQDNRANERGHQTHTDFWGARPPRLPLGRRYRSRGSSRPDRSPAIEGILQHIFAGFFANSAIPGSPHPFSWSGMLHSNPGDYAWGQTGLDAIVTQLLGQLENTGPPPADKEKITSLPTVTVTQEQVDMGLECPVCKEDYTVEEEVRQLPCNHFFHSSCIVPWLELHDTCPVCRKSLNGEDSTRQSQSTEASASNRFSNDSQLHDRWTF

[2] = molecular target: T1, IRF1 (interferon regulatory factor 1), endogenous (human (endogenous in HEK293T, MCF-7, MDA-MB-231, MCF-12F)); assay: co-IP; MCF-7 (ER+) cells transfected with HA-tagged constructs; endogenous IRF1 immunoprecipitated with anti-IRF1 on protein G magnetic beads from pre-cleared lysate, overnight at 4°C; HA-tagged constructs looked for in the pulldown fraction by western blot

| Substance | binding [1] | binding [2] |
| --- | --- | --- |
| HA-BCA2-△C-GST (BCA2 amino acids 1-147, C-terminus replaced by GST) (from UniProt Q9Y4L5 1-147) (domain or fragment) | binds | binds |
| HA-BCA2-△Ring (BCA2 amino acids 1-227) (from UniProt Q9Y4L5 1-227) (domain or fragment) | binds | – |
| HA-ΔBZF (BCA2 amino acids 47-304, lacking the zinc-finger domain) (from UniProt Q9Y4L5 47-304) (domain or fragment) | no binding | no binding |

From paper PMC8473798
